Screen size: about 150,000 compounds; about 540 (0.36%) showed an effect of 50% or more. Some of the results follow.
These compounds were tested on Plasmodium falciparum (assay: Primary screen in NF54 nanoGlo assay, in single point, at 2uM, 72h; a lower Z score goes with more inhibition). Conditions: timepoint 72 hour.
Assay type: functional, Erythrocyte

Row | Structure (SMILES) | % Inhibition [%] | Z score
1 | c1ccc(N2CCN(c3nc(-c4nc([C@H]5CCOC5)no4)cs3)CC2)cc1 | -5 | 0.69
2 | CN(C)C[C@@H]1CN(Cc2cccnc2)C[C@H]1NS(=O)(=O)c1ccccc1F | -17 | 2.7
3 | CCNc1ncc(Br)cc1C#N | -17 | 1.87
4 | CC(CS(=O)(=O)N(C)C)NC1CCCc2c1cnn2C (configuration not stated) | -9 | 1.1
5 | COc1ccc(CCc2nc(NC(=O)[C@H]3CC(=O)N(c4ccccc4)C3)n[nH]2)cc1 | -11 | 1.33
6 | CC(C)NC(=O)CN(C)CCCN1CCC(F)(F)CC1 | -3 | 0.41
7 | Cc1cn(C)nc1C(=O)NC1CC2(COC(C)(C)C2)C1 (configuration not stated) | -14 | 2.13
8 | CCOC(=O)C1CCN(c2ccc(-c3nc(-c4ccccc4C)no3)nn2)CC1 | -7 | 0.8
9 | CC(C)[C@H]1OCC[C@@H]1CNc1ccc(S(C)(=O)=O)cc1 | -8 | 1.07
10 | C[C@@H](C(=O)Nc1nccs1)N1CCCC1 | -4 | 0.56
11 | CC(C)c1nc(CNC(=O)c2ccc(NCCN3CCNC3=O)nc2)no1 | -19 | 1.78
12 | CN(C)C[C@@H](c1ccccc1)N(C)C(=O)c1ccc(-n2cnnc2)nc1 | -15 | 1.6
13 | CCCOC(=O)N1CCCn2nc(-c3nc4cc(OC)ccc4[nH]3)cc2C1 | -9 | 1.32
14 | Cc1cc(NC(=O)C2(CN(C)C)CCCCC2)ccc1N(C)C | -1 | 0.2
15 | CCC(CC)(CNC1CCC2(CCOCC2)CC1)C(=O)O | -5 | 0.63
16 | O=C1COCCN1CC(=O)N(Cc1cccnc1)c1ccc(F)cc1 | -1 | 0.09
17 | Cc1cc(O)cc(=O)n1CCn1cnc2ccccc2c1=O | -6 | 0.78
18 | Cc1csc(NC(=O)[C@H](C)N(C)Cc2noc(C(C)C)n2)n1 | -6 | 0.97
19 | CCc1nc(-c2ccc(C(=O)NCCc3cn[nH]c3)cc2)ccc1C | -16 | 2.26
20 | CCn1nc(C2CCOCC2)nc1-c1ccc(CO)cc1 | 15 | -1.92
21 | c1cc2cc(OCCOC[C@H]3CCCO3)ccc2[nH]1 | 3 | -0.3
22 | CCn1cc(C(=O)Oc2ccc(OC)c(F)c2)c(-c2cnn(C)c2)n1 | -18 | 2.57

Row | Structure (SMILES) | % Inhibition [%] | Z score
23 | Cc1ccc2c(C)cc(N[C@H]3CCN(C)C3)nc2c1C | -1 | 0.11
24 | COc1ccccc1N1CCN(C(=O)[C@@H]2COCCO2)CC1 | 5 | -1.02
25 | CNc1nc(C)cc(C(=O)N(C)c2cnn(C)c2)n1 | 11 | -1.53
26 | Cc1cc(C)c(CNC(=O)c2ccccc2NC(=O)c2ccco2)c(=O)[nH]1 | -22 | 2.97
27 | O=c1c2cccnc2ccn1Cc1cc(F)cc(C(F)(F)F)c1 | -10 | 1.22
28 | CCCN1C(=O)C2CCC(=O)N2c2ccc(C(=O)NC(C)c3ccccc3)cc21 (configuration not stated) | -12 | 1.9
29 | Cc1cccnc1N1CC[C@H](N2CCN(C)CC2)[C@H](CCCO)C1 | -7 | 1.29
30 | CN(Cc1cn[nH]c1)C(=O)c1cc[nH]c1C1CCC1 | -14 | 2.75
31 | CCN(CC)c1ccc(CNC(=O)[C@H](C)c2c(C)noc2C)cc1F | -12 | 1.74
32 | COC[C@H](C)NC(=O)Nc1ccc(Cl)c(OC(F)F)c1 | 1 | -0.1
33 | Cc1noc(C)c1CC(=O)N1CC(Nc2ncccn2)C1 | 9 | -1.06
34 | CC1CCCCC1OCCN1CCCC(c2ccnn2CCO)C1 (configuration not stated) | -8 | 0.89
35 | COc1ccccc1CCNC(=O)[C@@H]1CCN(c2ccc3ccccc3c2)C1=O | 7 | -0.89
36 | Cc1cc(C(=O)NC(C)(C)CN2CCOCC2)ns1 | -17 | 1.84
37 | CC[C@H](C)NS(=O)(=O)c1cc(NC(=O)C2CCC2)ccc1Oc1c(C)c(C(=O)O)nn1C | 8 | -1
38 | Nc1nonc1-n1nncc1-c1cccc2ccccc12 | 0 | 0.05
39 | Cn1c(=O)n(Cc2ccc(Cl)cc2)c(=O)c2c1nc(CN1CCOCC1)n2CC(N)=O | -11 | 1.36
40 | Cc1noc(C)c1S(=O)(=O)NCc1cnoc1C | -6 | 1.11
41 | Cc1nnc(O)nc1Nc1cccc(Cl)c1 | 1 | -0.06
42 | CN=C(NCCc1ccc2c(c1)OCO2)N(C)Cc1cnn(C)c1 | -2 | 0.37
43 | O=C(CCN1CCCC1=O)NCc1cccnc1N1CCCCCCC1 | -9 | 1.01
44 | CCC(CC)S(=O)(=O)NC(=O)c1ncoc1C(C)C | -13 | 2.49

Row | Structure (SMILES) | % Inhibition [%] | Z score
45 | O=C(c1cccs1)N1CC[C@H](Oc2cccnn2)C1 | -6 | 0.66
46 | Cc1ccn2c(C(=O)N3CCc4sccc4C3)nnc2n1 | -17 | 1.48
47 | O=C(N[C@@H]1CCCC(F)(F)[C@H]1O)c1noc2c1CCc1ccccc1-2 | 3 | -0.49
48 | O=C(Cc1ncc[nH]1)N(Cc1ccccc1C(F)(F)F)CC1CC1 | 2 | -0.41
49 | O=C(NC1CCN(Cc2cccc3c2OCO3)CC1)c1ccsc1 | -10 | 1.22
50 | Cn1cncc1CNC(=O)[C@H]1CCCN(c2ncccc2C(F)(F)F)C1 | -6 | 0.51
51 | CN1CCC(N(CCc2ccccc2)C(=O)c2ncoc2C2CC2)CC1 | -2 | 0.28
52 | O=C(Cc1cccc2ccccc12)Nc1ccc(Cl)c(N2CCCS2(=O)=O)c1 | 17 | -2.11
53 | CC(C)(C)C[C@@H](CC(=O)O)NS(=O)(=O)c1ccc(C#N)cc1 | 1 | -0.19
54 | CCc1sc(C(=O)Nc2c(NC)c(=O)[nH]c(=O)n2CC)cc1C | 7 | -0.85
55 | CCn1cc2ccc(C(=O)NC3CC3)cc2n1 | -11 | 1.58
56 | CCCC[C@@H](C(=O)Nc1ccc2c(c1)CCCCO2)N(CC)CC | -1 | 0.17
57 | Cc1nc(C)n(CCNC(=O)c2ccc3nc(C4CCCCC4)oc3c2)n1 | -8 | 0.82
58 | CC(C)n1ccc(CS(=O)(=O)[C@H]2CCOC2)n1 | -4 | 0.75
59 | O=C(NCc1ccco1)C1Cc2ccccc2N2CCCCC12 (configuration not stated) | -7 | 1.05
60 | NC(=O)NC1(Cc2cccc(F)c2)CCC1 | -4 | 0.45
61 | CN(C)CCN(CC1CCCCC1)C(=O)NCc1ccc(F)cc1 | -12 | 2.21
62 | CC1=NN(c2nc(-c3ccc(Cl)c(Cl)c3)cs2)C(=O)[C@H]1C | 7 | -0.83
63 | O=C(Nc1ccc(-c2ccc(N3CCCCC3)nn2)cc1)c1ccc2c(c1)OCO2 | -5 | 0.59
64 | COCc1cccc(OCc2noc3c2CCCC3)c1 | 25 | -3.61
65 | Cc1noc(C)c1CN1C(=O)[C@@H]2CC[C@H]1CN(C(=O)c1ccc(N)nc1)C2 | -11 | 2.11
66 | CC1CCN(c2nccnc2Oc2ccc(C(=O)NCc3ccccc3Cl)cc2)CC1 | 67 | -10.64

Row | Structure (SMILES) | % Inhibition [%] | Z score
67 | Cn1ccc(NC(=O)N(Cc2cccc(F)c2)C2CCC2)cc1=O | 0 | -0.04
68 | Cc1cccc(CN2CCOc3ccc(C4=Cc5ccccc5C4)cc3C2)n1 | -3 | 0.43
69 | C[C@H]1CCCN(CCC(=O)N2CCc3ccccc3C2)C1 | 25 | -3.23
70 | CCCc1nccn1CC(O)CN1CC(C)OC(C)C1 (configuration not stated) | -17 | 1.4
71 | Cc1ccc(C(=O)N[C@H]2CO[C@H]3[C@@H]2OC[C@@H]3n2cc(CN(C)Cc3ccccc3)nn2)cc1 | 27 | -3.15
72 | CC(CC(O)c1ccco1)NC(=O)c1ccc(Cl)cn1 (configuration not stated) | -14 | 2.19
73 | O=C(Cn1ccc([C@H]2CCCNC2)n1)N1CCC(Cc2ccccc2)CC1 | 2 | -0.4
74 | COc1cc(OC)cc(C(=O)N2CCN(c3cc(C)nc(N4CCOCC4)n3)CC2)c1 | -15 | 2.65
75 | COC[C@H](C)Nc1ccnc2ccsc12 | 6 | -1.04
76 | COCc1c(C(=O)NCCCN2CCOCC2)cnn1-c1nccc(-c2ccccc2F)n1 | -11 | 1.39
77 | O=C1CNC(=O)N1Cc1nc([C@H]2CCOC2)nn1-c1ccccc1 | -12 | 1.53
78 | O=C(N[C@H]1CCN(c2cc(N3CCOCC3)cnn2)C1)C1CCCC1 | -11 | 1.5
79 | COCCN(CC1CCN(Cc2ccccc2F)CC1)C(=O)c1cc(CC(C)C)on1 | -7 | 1.05
80 | Cn1ccnc1CN1C[C@@H]2CC[C@H]1CN(Cc1cscn1)C2 | 1 | -0.12
81 | COc1ccccc1CC(=O)Nc1ccc(N2CCN(Cc3ccccc3)C2=O)nc1 | -12 | 1.26
82 | C[C@H]1CCCCN1C(=N)NC(=O)c1ccccc1 | -8 | 1.46
83 | C=C(C)COc1ccccc1C(=O)N1CC[C@]2(OC)CC[C@H](OC)C[C@H]12 | -3 | 0.66
84 | Cc1nc(-c2csc(S(=O)(=O)N3CCC[C@H](C(=O)N(C)Cc4ccccc4)C3)c2)no1 | -10 | 1.09
85 | COc1ccc(-c2c(C)nn(C)c2NC(=O)CN2CCCN(C)CC2)cc1 | -14 | 2.64
86 | CC1CN(Cc2ccccc2)CC1NC(=O)NCCn1ccnc1 (configuration not stated) | -6 | 0.65

Source: ChEMBL document CHEMBL4888484, “Replenishing the malaria drug discovery pipeline: Screening and hit evaluation of the MMV Hit Generation Library 1 (HGL1) against asexual blood stage Plasmodium falciparum ,using a nano luciferase reporter read-out” (2022)
